Legend:
Assay in all cases: EIA, captured mAb
[1] = target: biotinylated HCV core peptide […] (Peptide 3) (HCV-1)
[2] = target: biotinylated HCV core peptide […] (Peptide 2) (HCV-1)
[3] = target: biotinylated HCV core peptide […] (Peptide 1) (HCV-1)

B1: HCV 208A-334 (antibody, V domains shown)
VH: [about 120 residues skipped]
VL: DIVLTQSPASLAVSLGQRATISCRASQSVSTSRYSYMHWYQQKPGQPPKLLIKYASNLESGVPARFSGSGSGTDFTLNIHPVAEEDTAAYYCQHSWGFPFTFGSGTKLEIKR
B1 showed a Reactivity (OD492) [1] of 0.05 OD, a Reactivity (OD492) [2] of 3.07 OD and a Reactivity (OD492) [3] of 0.05 OD.
